# Reference: PubChem BioAssay AID686970 (National Center for Advancing Translational Sciences (NCATS), 2013)
# Screen size: about 360,000 compounds; about 6,000 (1.7%) were called active. This list was built around the results that the source calls inconclusive (neither active nor inactive); the mix of calls is not that of the screen. The call rests on the fitted dose curve; in most records, active means well fitted cell-killing curve with a large enough effect; inconclusive means small, poorly fitted or top-dose-only effect, or effect the other way; inactive means flat fitted curve, though single readings scatter. Potencies of inconclusive entries are left out as doubtful fits.
# Test: qHTS for induction of synthetic lethality in tumor cells producing 2HG: qHTS for the HT-1080-NT fibrosarcoma cell line;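 further: NT is the 2HG producing partner of a matched IDH1 knockdown line; nearly all actives have a fitted effect of over 55% in size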;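 on activity, negative = less viability: 0% = DMSO-treated cells and -100% = media-only wells without cells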
# Settings: HT-1080-NT fibrosarcoma viability, CellTiter-Glo ATP luminescence, 48 h; activity, negative = less viability: at 46.1 µM (top of the series) unless noted
# In short: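 A 48-hour cytotoxicity screen used HT-1080-NT cells plated 2 hours before compound delivery. ATP-based CellTiter-Glo luminescence measured viability, normalized to DMSO and no-cell controls.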
# Potency means the concentration at half of the fitted maximal effect; tags describe the fitted curve by direction and shape.
Structure (SMILES),"activity, negative = less viability",Potency
CCc1ccc(S(=O)(=O)Nc2ccc(-c3ccc4nncn4n3)cc2)s1,inactive: -4.43%,
Cc1ccc(F)c(NC(=O)C2CCCCC2C(=O)O)c1 (stereo not given),inactive: -4.2%,
O=c1c2ccccc2oc2ccc(-c3ccc4[nH]ccc4c3)cc12,inactive: -19.7%,
COc1cccc2c1C(=N)c1c(O)c3c(c(O)c1C2=O)CC(O)(C(C)=O)CC3OC1CC(N)C(O)C(C)O1 (stereo not given),,active: 20.6 µM
COc1ccc(N=C2SC(CC(=O)Nc3ccccc3F)C(=O)N2Cc2ccco2)cc1 (stereo not given),inactive: -3.4%,
Cc1cc(C(=O)OC(C)C(=O)Nc2nc(-c3ccccc3)cs2)c(C)o1 (stereo not given),,"inconclusive [cytotoxic, single point]"
C/C(=N/Nc1ccc([N+](=O)[O-])cc1)c1c[nH]c2ccccc12,,"inconclusive [cytotoxic, single point]"
O=[N+]([O-])/C=C\c1ccc(N2CCCC2)c(F)c1,,"inconclusive [cytotoxic, single point]"
O=C(NC(=S)Nc1cc([N+](=O)[O-])ccc1O)c1ccc2c(c1)OCO2,,"inconclusive [cytotoxic, partial curve]"
O=C(Nc1ccc2c(c1)nc1n2CCSC1)c1ccccc1,inactive: -1.49%,
CCN(CC)S(=O)(=O)c1ccc(N2CCc3ccccc3C2)nc1,,"inconclusive [cytotoxic, single point]"
Cc1[nH]nc(C(=O)NN=Cc2ccccc2Cl)c1N=NN(C)C,,active: 20.6 µM
CCCCC[C@H](C)N1C[C@H](COCc2ccccc2)Oc2cc(N3CCC[C@H]3C(N)=O)ccc2S1(=O)=O,,"inconclusive [cytotoxic, single point]"
O=C(N/N=C/c1ccc([N+](=O)[O-])o1)c1ccc(O)cc1,,active: 5.8 µM
C(=C\c1nnc2c3ccccc3ncn12)/c1ccccc1,,"inconclusive [cytotoxic, partial curve]"
NS(=O)(=O)c1ccc(NC(=O)COC(=O)c2c3c(nc4ccccc24)/C(=C\c2ccc4c(c2)OCO4)CCC3)cc1,,"inconclusive [cytotoxic, single point]"
O=C(N/N=C/c1cc(Cl)ccc1O)c1ccc(Br)cc1,,active: 9.2 µM
CCOc1ccc(-c2cn3ccccc3n2)cc1[N+](=O)[O-],,active: 14.6 µM
O=C(CCl)Nc1cccc(S(=O)(=O)NC2=NCCCCC2)c1,,active: 3.66 µM
CCc1ccc(C2=NNC(=Nc3cccc(S(=O)(=O)N(C)C)c3)SC2)cc1,,active: 20.6 µM
CN(CCO)C1=NS(=O)(=O)c2cc([N+](=O)[O-])ccc21,inactive: 0.623%,
COc1ccc(-c2noc(-c3ccc(Cl)cc3[N+](=O)[O-])n2)cc1OC,inactive: 9.27%,
Cn1cccc1Cc1nnc(SCC(=O)N2CCN(c3ccccc3)CC2)n1-c1ccc(F)cc1,inactive: 9.97%,
CCCOc1ccc(N/C=C/C(=O)c2cc(OC)c(OC)c(OC)c2)cc1,inactive: -1.21%,
CCOc1ccccc1NC(=S)Nc1ncccc1C,,"inconclusive [cytotoxic, single point]"

Structure (SMILES),"activity, negative = less viability",Potency
Cc1cccc(C)c1OCc1cc(C(=O)N(Cc2nccn2C)C(C)C)no1,inactive: 1.87%,
O=C(NC(=S)N1CCCC(C(F)(F)F)C1)c1ccc(F)cc1 (stereo not given),inactive: -0.425%,
COc1cc(C(C)=O)ccc1OCCCN1CCC(Cc2ccccc2)CC1,,"inconclusive [cytotoxic, single point]"
N#Cc1ccccc1NC(=O)COc1ccc2c(c1)OCO2,,"inconclusive [rising, full curve, poor fit]"
Cc1cc(NC(=O)CC2CCCC2)n(-c2nc3ccccc3[nH]2)n1,,"inconclusive [cytotoxic, partial curve]"
COc1cc2c(cc1OC)C(C)N(C(=O)Nc1ccccc1)CC2 (stereo not given),,active: 2.91 µM
Cc1ccc(-c2nc3ccccc3[nH]2)cn1,,"inconclusive [cytotoxic, partial curve]"
CCCCN(C=O)c1c(CC)nc2c(OCc3ccc(Cl)cc3)cccn12,,"inconclusive [cytotoxic, partial curve]"
O=C(CSc1nnc(Cc2ccccc2)o1)N1CCc2ccccc21,inactive: -8.4%,
Cc1ccc(C)c(S(=O)(=O)N2CCN(C(=O)CNC(=O)c3sc4ccccc4c3Cl)CC2)c1,inactive: 12%,
O=S(=O)(Nc1nccs1)c1ccc(Nc2nnc(-c3ccccc3)c3ccccc23)cc1,,"inconclusive [cytotoxic, single point]"
COc1ccc(-c2cc(C(=O)OCC(=O)N3CCCC3)c3ccccc3n2)cc1,,"inconclusive [cytotoxic, single point]"
CCCC(=O)N1CC2(C)CN(C(=O)CCC)CC(CCC)(C1)C2=O,,"inconclusive [rising, partial curve, poor fit]"
CC(C)(C)c1ccc(-n2nc(C(N)=O)c(O)cc2=O)cc1,inactive: -3.72%,
CC(C)NC(=O)/C(C#N)=C/c1cccc(NC(=O)c2ccccc2Cl)c1,,"inconclusive [cytotoxic, partial curve]"
O=C(Cn1ccc(=O)[nH]c1=O)NCCO,inactive: 20.4%,
COc1ccc(OC)c(NC(=O)CC2SC(=NCc3ccccc3)NC2=O)c1 (stereo not given),,"inconclusive [cytotoxic, single point]"
CCn1c2ccccc2c2cc(N)ccc21,,"inconclusive [cytotoxic, single point]"
C1CC(CN2CCOCC2)CN(Cc2nc(CC3CC3)no2)C1 (stereo not given),inactive: -7.92%,
COc1cc(C2NCC(c3ccc(Cl)cc3Cl)c3c2[nH]c2ccccc32)cc(OC)c1OC (stereo not given),,active: 18.4 µM
COC(=O)c1c(NC(=S)Nc2ccc(F)cc2[N+](=O)[O-])sc2c1CCCCC2,inactive: 0.522%,
Cc1ccc(C)c(NC(=O)CN(C)C(=O)c2cc(C3CC3)nn2-c2ccccc2)c1,inactive: -13.3%,
COC(=O)c1cc(=O)n(Cc2ccco2)c(=Nc2ccc(F)c(Cl)c2)s1,,"inconclusive [cytotoxic, single point]"
CCOc1ncccc1C(=O)Nc1ccc2nc(C)sc2c1,,"inconclusive [cytotoxic, single point]"
CCCCN1CC(COCc2ccccc2)Oc2cccc(Oc3ccc(C)cc3)c2S1(=O)=O (stereo not given),inconclusive: -5.05% [cytotoxic],

Structure (SMILES),"activity, negative = less viability",Potency
Cc1ccccc1OCC(=O)Nc1cc(S(=O)(=O)N2CCCCC2)ccc1N1CCN(C)CC1,,"inconclusive [cytotoxic, single point]"
CC(C)C(NC(=O)OCc1ccccc1)C(=O)NC(Cc1c[nH]c2ccccc12)C(=O)O (stereo not given),inactive: 13.3%,
CC(CNC(=O)CN1C(=O)C(=O)N(C2CCCC2)C1=O)c1ccccc1 (stereo not given),inconclusive: -6.48% [cytotoxic],
CC(C)(C)CC(C)(C)Nc1c(-c2ccc(O)cc2)nc2cnccn12,,"inconclusive [cytotoxic, single point]"
CN(C(=S)Nc1ccc(SC(F)F)cc1)C(c1ccccc1)c1ccccc1,,"inconclusive [cytotoxic, single point]"
COc1ccc(CCN(C)C2CCCN(S(=O)(=O)c3ccccc3)C2)cc1OC (stereo not given),inactive: 2.04%,
Cc1nn(-c2ccccc2)c(Cl)c1C(=O)OCC(=O)NCCc1ccccc1,inactive: -1.21%,
CCc1ccc(CN(C)CC(O)COc2cccc3ccccc23)cc1 (stereo not given),,"inconclusive [cytotoxic, single point]"
Oc1ccc(/C=N/NC(=S)N/N=C/c2ccc(O)cc2)cc1,,"inconclusive [cytotoxic, single point]"
COc1cccc(CNc2nc3ccccc3n2CCN2CCCCC2)c1,,"inconclusive [cytotoxic, single point]"
CCOC(=O)N1CCC(NC(=O)c2ccc3c(c2)N=C(CC)c2ccccc2S3)CC1,,"inconclusive [cytotoxic, single point]"
COc1cccc(O)c1CN1CCC(C(=O)Nc2ccc(-c3cccc(C)c3)cc2)CC1,,active: 23.1 µM
CCOc1ccccc1NC(=O)C(OC(=O)c1ccc(O)cc1)c1ccccc1 (stereo not given),,"inconclusive [cytotoxic, single point]"
CCCSC(=S)NC1CCS(=O)(=O)C1 (stereo not given),,"inconclusive [cytotoxic, single point]"
O=C(c1ccccc1)C(CN1CCCCC1)c1ccccc1 (stereo not given),,active: 2.59 µM
COCCCNc1nc2c(-c3cccc(C)c3)nnn2c2ccc(Cl)cc12,,"inconclusive [cytotoxic, single point]"
CCOC(=O)C1(CCOc2ccccc2)CCN(Cc2ccc(C#CCCO)cc2)CC1,,"inconclusive [cytotoxic, single point]"
CC(C)(C)Cc1c(-c2ccc(Cl)cc2)nc2ccc(Br)cn12,,"inconclusive [cytotoxic, single point]"
O=C(CN1CCOCC1)Nc1ncc(Cc2cccc3ccccc23)s1,,"inconclusive [cytotoxic, single point]"
C1NNCC12CNNC2,inconclusive: 31.9%,
CCCCn1c(-c2csc(CC)c2)n[nH]c1=S,inactive: 1.38%,
COc1ccc(N(CC(=O)Nc2cc(C)on2)S(=O)(=O)c2cc(C)ccc2C)cc1,,"inconclusive [cytotoxic, partial curve]"
O=C(CC(c1ccco1)S(=O)(=O)c1ccccc1)c1ccccc1 (stereo not given),,"inconclusive [cytotoxic, single point]"
CCC(C)[C@H](NC(=O)N1CCCCCC1)C(=O)OC (stereo not given in full),inactive: -1.05%,
Cc1cc(C)cc(NS(=O)(=O)c2ccc3[nH]cc(C(=O)N4CCc5ccccc54)c(=O)c3c2)c1,,active: 23.1 µM
